Test results reported in PubChem BioAssay AID1963576 (National Center for Advancing Translational Sciences (NCATS), 2024).
About 60 (0.1%) of roughly 46,000 compounds were called active. Inconclusive results (about 3%) are left out. Calls come from the whole dose curve; as a rule, active = well fitted inhibition curve with a large enough effect; inconclusive = small, poorly fitted or top-dose-only effect; inactive = no such curve, though single readings can be large or run the other way. The list shows a part of the results.

Experiment: Primary qHTS assay for Inhibitors of ovarian cancer metastasis using an organotypic tumor microenvironment (TME) model.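 For activity change, negative = inhibition: plate controls were DMSO wells for no effect and tomatine positive control wells for full effect.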 Note: nearly all actives have a fitted effect of over 65% in size.
Settings: SKOV3ip1-GFP adhesion/invasion on 3D omental model, fluorescence; series mostly up to 45.8 µM; activity change, negative = inhibition: at the top concentration
Outline: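 Adhesion/invasion was scored as fixed GFP-labeled SKOV3ip1 cell counts (488/509 nm), normalized to DMSO and tomatine controls. Cancer cells in serum-free medium, with four compound doses (0.36-46 umol/L), sat 2 hr at RT then 16 hr at 37 C on a 48 hr fibroblast/mesothelial/ECM culture.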

Structure (SMILES) | outcome | activity change, negative = inhibition
COc1cc(NC(=O)CCc2c(C)nc3c(c(C)nn3-c3ccccc3)c2C)cc(OC)c1OC | inactive | 
CN1C(=O)C2CCCCN2c2ccc(C(=O)NCc3ccccc3Br)cc21 (stereo unspecified) |  | inactive: -25.5%
COc1ccc(Br)cc1CNC(=O)CCC(=O)N1CCSc2ccccc21 | inactive | 
Clc1cccc(-c2noc3ncnc(NC4CCCCC4)c23)c1 |  | inactive: -0.79%
O=C(CSc1nc2c([nH]c3ccccc32)c(=O)n1-c1ccc(F)cc1)N1CCCCCC1 |  | inactive: 20%
COc1ccccc1CNC(=O)Nc1ccc2c(c1)N(C)C(=O)c1ccccc1S2 |  | inactive: -15.2%
CCOc1ccc(CNC(=O)Cn2nc(C)c3sc4ccccc4c3c2=O)cc1 | inactive | 
O=C(Nc1ccc(Br)cc1)c1ccc(Br)c(S(=O)(=O)NCc2ccccc2)c1 |  | inactive: -28.7%
COc1cccc(-c2cc(C(=O)NCCc3ccc(C)cc3)[nH]n2)c1 |  | inactive: 10.3%
CC(=O)c1c(C)n(-c2cccc(C)c2)c2ccc(OC(=O)COc3ccccc3)cc12 |  | inactive: 4.42%
Cc1ccc(NS(=O)(=O)c2c(C(=O)N3CCCCCC3)c(C)n(C)c2C)cc1F |  | inactive: 15.8%
CCOC(=O)c1c(C)c(C(=O)NCCc2ccc(OC)cc2)c(C)n1CC |  | inactive: 8.04%
Cc1ccc(C(=O)Nc2ccc3c(c2)N(C)C(=O)c2ccccc2S3)cc1F |  | inactive: 11.3%
CCN(Cc1ccccc1)C(=O)Nc1ccc2c(c1)N(C)C(=O)c1ccccc1S2 | inactive | 
CC(=O)c1ccc(NC(=O)CSc2nc(-c3ccccc3F)nc3c2c(=O)n(C)c(=O)n3C)cc1 |  | inactive: 6.84%
Cc1ccc(C(c2sc3nc(-c4ccco4)nn3c2O)N2CCCCC2)cc1 (stereo unspecified) |  | inactive: 0.344%
Cc1ccc(N(C)S(=O)(=O)c2ccc3[nH]cc(C(=O)O)c(=O)c3c2)cc1C |  | inactive: -8.84%
CCc1nn(CC(=O)Nc2c(C)cc(C)cc2C)c(=O)c2cc3sccc3n12 |  | inactive: -8.16%
C=Cc1ccc(Cn2c(=O)n(-c3ccccc3C)c(=O)c3c4c(sc32)CN(C(C)=O)CC4)cc1 |  | inactive: 4.46%
COc1ccc(C)cc1NC(=O)CN1C(=O)CCc2cc(S(=O)(=O)N3CCOCC3)ccc21 | inactive | 
O=C(NCc1cccs1)c1ccc(CSc2nc3ccncc3n2Cc2cccc(F)c2)cc1 |  | inactive: -5.55%
Cc1ccc(NC(=O)C2CCN(c3nc4ccccc4[nH]3)CC2)cc1Cl | inactive | 
CC1Cc2cc(S(=O)(=O)NCc3ccc(F)cc3)ccc2N1C(=O)C1CCC1 (stereo unspecified) | inactive | 
CCOC(=O)c1c(-c2ccc(C)cc2)csc1NC(=O)c1cc(=O)c2cc(C)c(C)cc2o1 |  | inactive: -5.94%

Structure (SMILES) | outcome | activity change, negative = inhibition
CN1CCC(=C2c3ccccc3C=Cc3ccccc32)CC1 |  | inactive: 4.04%
COC(=O)c1cc2sc(C)cc2n1Cc1ccc(F)cc1Cl | inactive | 
CCOc1ccc2nc(N(Cc3cccnc3)C(=O)c3ccc4c(c3)OCCO4)sc2c1 |  | inactive: 1.57%
COc1cccc(CSc2nc3cc(OC)c(OC)cc3c3nc(CCn4nc(C)cc4C)nn23)c1 | inactive | 
O=C(NC1(C(F)(F)F)NC(=O)N(CCc2ccccc2)C1=O)c1ccccc1F (stereo unspecified) | inactive | 
O=S(=O)(c1ccc(Cl)cc1)c1nc(-c2ccccc2Br)oc1N1CCOCC1 |  | inactive: -3.81%
COc1ccccc1CNC(=O)Cn1c(=O)ccc2cc(S(=O)(=O)N3CCC(C)CC3)ccc21 | inactive | 
CC(C)Oc1ccc(C(=O)Nc2ccc3oc(-c4ccncc4)nc3c2)cc1 |  | inactive: -8.4%
Cc1[nH]c2ccc(F)cc2c1CCNC(=O)c1cc2cc(Cl)ccc2oc1=O |  | inactive: 11.1%
COc1ccc(S(=O)(=O)NCC(c2cccs2)S(=O)(=O)c2ccc(C)cc2)cc1F (stereo unspecified) |  | inactive: -6.6%
COc1ccc(-c2cn3nc(N4CCCC(C(=O)Nc5ccc(Cl)cc5C)C4)sc3n2)cc1 (stereo unspecified) |  | inactive: 3.18%
CC1Cc2ccccc2N1S(=O)(=O)c1nnc(NC(=O)c2ccccc2Br)s1 (stereo unspecified) |  | inactive: 0.251%
Cc1ccc(CCNC(=O)c2nnc(Cc3cccc(F)c3)o2)cc1 |  | inactive: 11.5%
COc1ccc2c(c1)CCc1c(C(=O)Nc3c(C)nn(Cc4ccccc4Cl)c3C)noc1-2 |  | inactive: 0.0887%
O=c1n(Cc2ccc(F)cc2Cl)c2ccccc2c2nc(-c3ccccc3)nn12 | inactive | 
Cn1c(=O)c2c(nc(NCCc3ccccc3)n2Cc2cccc(Br)c2)n(C)c1=O |  | inactive: -27.3%
CCCCN(CC)CCCNC(=O)c1cn(CC(C)C)c(=O)c2c1c1ccccc1n2C |  | inactive: -1.01%
Cc1ccc(CNC(=O)c2c[nH]c3ccc(S(=O)(=O)Nc4ccc(C(C)C)cc4)cc3c2=O)cc1 |  | inactive: 14.1%
COc1ccc(Cl)cc1NS(=O)(=O)c1c(C)nc2scc(C)n2c1=O |  | inactive: -2.39%
COc1cc(NC(=O)C(NC(=O)C2CCC(C)CC2)C(C)C)cc(OC)c1OC (stereo unspecified) |  | inactive: -8%
COCCCn1c(=N)c(C(=O)NC2CCCCC2)cc2c(=O)n3ccccc3nc21 |  | inactive: 20.1%
COc1ccc(NC(=O)Cn2cnc3c(nc4n3CCCCC4)c2=O)c(OC)c1 |  | inactive: 1.73%
COc1ccc(C(=O)Nc2onc3c2CCCC3)cc1 |  | inactive: -2.55%
Cc1c(CNC2CCCCCC2)c(C(=O)O)c(C)n1Cc1c(F)cccc1Cl |  | inactive: -1.43%

Structure (SMILES) | outcome | activity change, negative = inhibition
COc1ccc(C2=CC(c3ccc(N(C)C)cc3)n3nnnc3N2)cc1 (stereo unspecified) |  | inactive: -20.5%
CCOC(=O)c1ccccc1NC(=O)Cc1c(C(=O)O)c(C)cn1C |  | inactive: -18.7%
Cc1cccc(CS(=O)(=O)CC2Nc3ccc(C(=O)NCc4ccccc4)cc3NC2=O)c1 (stereo unspecified) | inactive | 
Cc1cc(=O)oc2c3c(ccc12)OCN(Cc1ccccc1Cl)C3 |  | inactive: 1.89%
Cc1ccc(-n2ncc(C(=O)N3CCN(c4ccccn4)CC3)c2C2CCN(C(=O)OC(C)(C)C)CC2)cc1C | inactive | 
COc1ccc(N2CCN(C(=O)Cn3cnc4sc(C)c(S(=O)(=O)N5CCC(C)CC5)c4c3=O)CC2)cc1 |  | inactive: -2.84%
CCOC(=O)c1ccc(N2C(=O)c3n[nH]c(C)c3C2c2ccc(O)c(OC)c2)cc1 (stereo unspecified) | inactive | 
O=c1n(Cc2ccc([N+](=O)[O-])cc2)c2ccccc2c2nc(-c3ccccc3)nn12 |  | inactive: -12.6%
COc1ccc(CCNC(=O)Cc2c(C)c3ccc(O)c(C)c3oc2=O)cc1OC | inactive | 
Cc1ccc(NC(=O)N(Cc2c[nH]c3ccccc23)C2CCCCCC2)cc1C |  | inactive: 5.05%
COc1ccc(CCNC(=O)CCN2N=C(c3ccccc3)CCC2=O)cc1OC |  | inactive: -0.544%
O=C(CS(=O)(=O)c1ccc(Cl)cc1)Nc1nc2ccc(Br)cc2s1 |  | inactive: 3.33%
Cc1ccc(Cn2cnc3nc4c(cc3c2=O)CCCC4)cc1 |  | inactive: 0.0094%
CCOc1ccc(NC(=O)c2cccc3c(=O)c4c([nH]c23)CCCC4)cc1 |  | inactive: -6.05%
Cc1cc(C)cc(-n2c(SCC(=O)Nc3ccccc3F)nc3c(oc4ccccc43)c2=O)c1 |  | inactive: 3.28%
Cc1c(NC(=O)Nc2ccccc2C(F)(F)F)c(=O)n(-c2ccccc2)n1C | inactive | 
Cc1ccc(C(=O)N2CCc3cc(CNC(=O)c4ccccc4F)ccc32)cc1 |  | inactive: -2.81%
Cn1c(=O)n(C)c2cc(CNCc3ccc(F)cc3)ccc21 |  | inactive: -4.04%
Cc1cc(C)c(NC(=O)CN(c2ccccc2)S(=O)(=O)N(C)C)c(C)c1 | inactive | 
Cc1oc2ncn(CC(C)C)c(=O)c2c1C(=O)N1CCN(c2ccccc2F)CC1 |  | inactive: 1.73%
CCc1ccc(NC(=O)C2(c3cccs3)CCOCC2)cc1 |  | inactive: -6.51%
Cc1ccccc1NC(=O)c1cc2ccccc2o1 |  | inactive: -9.92%
Clc1ccc(-c2nnn3c2nc(N2CCCCC2)c2ccccc23)cc1 |  | inactive: -8.56%
CCOc1ccc(NC(=O)c2cnn3c2NC(c2ccccc2)=CC3c2cccc(OC)c2OC)cc1 (stereo unspecified) |  | inactive: -7.31%

Structure (SMILES) | outcome | activity change, negative = inhibition
C#Cc1cccc(Nc2ncnc3cc(OC)c(OCCCCCCC(=O)NO)cc23)c1 |  | inactive: 6.34%
O=C(Nc1ccc2oc(-c3ccc4ccccc4c3)nc2c1)c1cccc(Cl)c1Cl |  | inactive: -4.81%
CSc1ccc(CCNC(=O)CN2C(=O)COc3ccc(S(=O)(=O)N4CCCC4)cc32)cc1 |  | inactive: 4.62%
O=C(Nc1ccc(F)cc1)c1ncn(-c2ccccc2)n1 |  | inactive: -0.756%
COc1ccc(-n2c(=O)c3c4c(sc3n(Cc3c(F)cccc3Cl)c2=O)CN(C(C)=O)CC4)cc1OC |  | inactive: 1.11%
COc1ccc(C2CC(=O)N(Cc3cccc(C)c3)c3c2c(C)nn3-c2nc(C)cc(C)n2)c(OC)c1 (stereo unspecified) |  | inactive: -0.082%
COC(=O)c1sc2cccc(F)c2c1S(=O)(=O)NCc1ccc(F)cc1 |  | inactive: 9.21%
CCOC(=O)c1cnc2c(Cl)c(Cl)ccc2c1Nc1ccc(N(C)C)cc1 | inactive | 
Cc1ccccc1-n1c(=O)c2ccccc2n(Cc2ccc(F)cc2)c1=O | inactive | 
COc1cccc(N2CCN(S(=O)(=O)c3ccc(-c4cc(C(F)(F)F)on4)s3)CC2)c1 |  | inactive: 4.57%
Cc1ccc(CCNC(=O)CCS(=O)(=O)c2ccc3c(c2)oc(=O)n3C)cc1 |  | inactive: -4.23%
O=C(Cn1ccc2cc(S(=O)(=O)N3CCCCCC3)ccc21)NCCc1ccccc1Cl |  | inactive: 0.351%
COc1cccc(-c2nc(SCC(=O)NCc3ccccc3)c3c(=O)n(C)c(=O)n(C)c3n2)c1 |  | inactive: 5.8%
CCCCSCCCNC(=O)c1cn(CC)c2ccc(S(=O)(=O)N(C)C3CCCCC3)cc2c1=O |  | inactive: -1.71%
CCOC(=O)c1ccccc1NC(=O)CN(c1cc(C(F)(F)F)ccc1Cl)S(C)(=O)=O | inactive | 
CCCc1cc(C(N)=S)ccn1 |  | inactive: 23%
COc1cccc(NC(=O)Cn2c(=O)c3cccn3c3ccc(F)cc32)c1 | inactive | 
O=S(=O)(c1ccccc1)n1nc(-c2ccc(Cl)cc2)nc1NCc1ccc(F)cc1 | inactive | 
Cc1ccc(-c2noc(CN(C(=O)c3ccc(C(C)(C)C)cc3)C(C)C)n2)cc1 |  | inactive: -2.15%
CCOC(=O)C1=C(C)NC2=C(C(=O)CC(C)(C)C2)C1c1ccc(-c2ccccc2)cc1 (stereo unspecified) |  | inactive: -22.6%
CCOC(=O)c1scc(-c2ccc(C)cc2)c1S(=O)(=O)Nc1cc(C)ccc1C |  | inactive: 2.51%
Cc1ccc(CCNC(=O)c2ccc(CS(=O)(=O)Cc3ccc(Cl)cc3)o2)cc1 |  | inactive: 1.29%
CN(CC(=O)NCc1ccc(Cl)cc1)S(=O)(=O)c1ccc2c(c1)c(=O)n(C)c(=O)n2C | inactive | 
CCOc1ccccc1NC(=O)Nc1ccccc1OCc1cc(=O)n2ccccc2n1 | inactive | 
